The list shows a part of the results. The list includes weakly bound sequences.

This assay deals with T1, MBP-FoxP3dN (UniProt Q99JB6).
T1 sequence: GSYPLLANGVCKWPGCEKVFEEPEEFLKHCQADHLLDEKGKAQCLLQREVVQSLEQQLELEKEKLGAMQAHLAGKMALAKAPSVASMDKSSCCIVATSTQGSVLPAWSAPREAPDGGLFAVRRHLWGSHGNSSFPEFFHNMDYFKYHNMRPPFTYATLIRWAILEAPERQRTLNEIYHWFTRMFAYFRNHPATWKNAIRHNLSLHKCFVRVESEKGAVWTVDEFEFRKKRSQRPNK
As to the kind of experiment: PD-seq (MBP pull-down with sequencing). The conditions noted are these: 20 mM Tris-HCl pH 7.5, 100 mM NaCl, 1.5 mM MgCl2, 0.4 uM protein, 0.1 uM dsDNA library, 30 min, room temperature, amylose pull-down; high values mean tight binding; double strand, one strand shown.
For the sequence “GATGATTGTTCTCCCAGCTGATGAATTAATTCTGTCGAGTAAACAAATTTTCCTAATCTTTCTGTTCAAGCGCCATCTAC”, the binding signal (RPM ratio (pull-down/input)) stood at 0.249.

For the sequence “GATGATTGTTCTCCCAGCTGATGAATTAAGACATTCGAGTAAACAAATTTTCCTAATCTTTCTGTTCAAGCGCCATCTAC”, the binding signal (RPM ratio (pull-down/input)) is 0.913.

In the case of “GATGATTGTTCTCCCAGCTGATGAATTTTGCCCATCGAGTAAACAAATTTTCCTAATCTTTCTGTTCAAGCGCCATCTAC”, the binding signal (RPM ratio (pull-down/input)) was 1.68.

“GATGATTGTTCTCCCAGCTGATGAATTGCCTTCATCGAGTAAACAAATTTTCCTAATCTTTCTGTTCAAGCGCCATCTAC”: the binding signal (RPM ratio (pull-down/input)) was 1.05.

Consider “GATGATTGTTCTCCCAGCTGATGAATTCGCAATCTCGAGTAAACAAATTTTCCTAATCTTTCTGTTCAAGCGCCATCTAC”, for which the binding signal (RPM ratio (pull-down/input)) was 1.71.

On to “GATGATTGTTCTCCCAGCTGATGAATTTCCCTCATCGAGTAAACAAATTTTCCTAATCTTTCTGTTCAAGCGCCATCTAC”, for which the binding signal (RPM ratio (pull-down/input)) was determined as 0.354.

Consider “GATGATTGTTCTCCCAGCTGATGAATTGAGACTGTCGAGTAAACAAATTTTCCTAATCTTTCTGTTCAAGCGCCATCTAC”, for which the binding signal (RPM ratio (pull-down/input)) came out at 0.721.

As for “GATGATTGTTCTCCCAGCTGATGAATTCGAGCTTTCGAGTAAACAAATTTTCCTAATCTTTCTGTTCAAGCGCCATCTAC”, the binding signal (RPM ratio (pull-down/input)) stood at 0.783.

As for “GATGATTGTTCTCCCAGCTGATGAATTTATGGAATCGAGTAAACAAATTTTCCTAATCTTTCTGTTCAAGCGCCATCTAC”, the binding signal (RPM ratio (pull-down/input)) worked out at 0.376.

For “GATGATTGTTCTCCCAGCTGATGAATTCCAGCCCTCGAGTAAACAAATTTTCCTAATCTTTCTGTTCAAGCGCCATCTAC”, the binding signal (RPM ratio (pull-down/input)) was 0.367.

In the case of “GATGATTGTTCTCCCAGCTGATGAATTCGAAATGTCGAGTAAACAAATTTTCCTAATCTTTCTGTTCAAGCGCCATCTAC”, the binding signal (RPM ratio (pull-down/input)) was found to be 0.334.

As for “GATGATTGTTCTCCCAGCTGATGAATTAACATCTTCGAGTAAACAAATTTTCCTAATCTTTCTGTTCAAGCGCCATCTAC”, the binding signal (RPM ratio (pull-down/input)) was 0.526.

For the sequence “GATGATTGTTCTCCCAGCTGATGAATTACCCACGTCGAGTAAACAAATTTTCCTAATCTTTCTGTTCAAGCGCCATCTAC”, the binding signal (RPM ratio (pull-down/input)) was found to be 0.301.

Regarding “GATGATTGTTCTCCCAGCTGATGAATTAGCGGCCTCGAGTAAACAAATTTTCCTAATCTTTCTGTTCAAGCGCCATCTAC”, the binding signal (RPM ratio (pull-down/input)) was found to be 0.488.

As for “GATGATTGTTCTCCCAGCTGATGAATTCTGAGTGTCGAGTAAACAAATTTTCCTAATCTTTCTGTTCAAGCGCCATCTAC”, the binding signal (RPM ratio (pull-down/input)) stood at 1.59.

As for “GATGATTGTTCTCCCAGCTGATGAATTCGTTAGCTCGAGTAAACAAATTTTCCTAATCTTTCTGTTCAAGCGCCATCTAC”, the binding signal (RPM ratio (pull-down/input)) is 1.35.

As to “GATGATTGTTCTCCCAGCTGATGAATTAGTTCCGTCGAGTAAACAAATTTTCCTAATCTTTCTGTTCAAGCGCCATCTAC”, the binding signal (RPM ratio (pull-down/input)) is 0.36.

Consider “GATGATTGTTCTCCCAGCTGATGAATTAATCGGGTCGAGTAAACAAATTTTCCTAATCTTTCTGTTCAAGCGCCATCTAC”, for which the binding signal (RPM ratio (pull-down/input)) came out at 0.275.

Turning to “GATGATTGTTCTCCCAGCTGATGAATTCAATCGGTCGAGTAAACAAATTTTCCTAATCTTTCTGTTCAAGCGCCATCTAC”, the binding signal (RPM ratio (pull-down/input)) came to 0.287.

With “GATGATTGTTCTCCCAGCTGATGAATTAGGATAATCGAGTAAACAAATTTTCCTAATCTTTCTGTTCAAGCGCCATCTAC”, the binding signal (RPM ratio (pull-down/input)) stood at 0.341.

As to “GATGATTGTTCTCCCAGCTGATGAATTTCGTTATTCGAGTAAACAAATTTTCCTAATCTTTCTGTTCAAGCGCCATCTAC”, the binding signal (RPM ratio (pull-down/input)) came to 2.7.

Take “GATGATTGTTCTCCCAGCTGATGAATTAACGCTATCGAGTAAACAAATTTTCCTAATCTTTCTGTTCAAGCGCCATCTAC”: the binding signal (RPM ratio (pull-down/input)) is 0.812.

For “GATGATTGTTCTCCCAGCTGATGAATTTTACTTATCGAGTAAACAAATTTTCCTAATCTTTCTGTTCAAGCGCCATCTAC”, the binding signal (RPM ratio (pull-down/input)) is 1.37.

With “GATGATTGTTCTCCCAGCTGATGAATTTAATAACTCGAGTAAACAAATTTTCCTAATCTTTCTGTTCAAGCGCCATCTAC”, the binding signal (RPM ratio (pull-down/input)) is 0.478.

Take “GATGATTGTTCTCCCAGCTGATGAATTTAAGATCTCGAGTAAACAAATTTTCCTAATCTTTCTGTTCAAGCGCCATCTAC”: the binding signal (RPM ratio (pull-down/input)) was determined as 0.306.

Take “GATGATTGTTCTCCCAGCTGATGAATTCTACAAGTCGAGTAAACAAATTTTCCTAATCTTTCTGTTCAAGCGCCATCTAC”: the binding signal (RPM ratio (pull-down/input)) was determined as 0.249.

On to “GATGATTGTTCTCCCAGCTGATGAATTAGTGCTGTCGAGTAAACAAATTTTCCTAATCTTTCTGTTCAAGCGCCATCTAC”, for which the binding signal (RPM ratio (pull-down/input)) was 0.874.

Regarding “GATGATTGTTCTCCCAGCTGATGAATTAAAACCATCGAGTAAACAAATTTTCCTAATCTTTCTGTTCAAGCGCCATCTAC”, the binding signal (RPM ratio (pull-down/input)) was found to be 0.316.

In the case of “GATGATTGTTCTCCCAGCTGATGAATTTATCTTTTCGAGTAAACAAATTTTCCTAATCTTTCTGTTCAAGCGCCATCTAC”, the binding signal (RPM ratio (pull-down/input)) was found to be 0.528.

For “GATGATTGTTCTCCCAGCTGATGAATTACCTATCTCGAGTAAACAAATTTTCCTAATCTTTCTGTTCAAGCGCCATCTAC”, the binding signal (RPM ratio (pull-down/input)) worked out at 0.386.

As for “GATGATTGTTCTCCCAGCTGATGAATTCGGTACGTCGAGTAAACAAATTTTCCTAATCTTTCTGTTCAAGCGCCATCTAC”, the binding signal (RPM ratio (pull-down/input)) amounted to 0.515.

On to “GATGATTGTTCTCCCAGCTGATGAATTTGTCGCGTCGAGTAAACAAATTTTCCTAATCTTTCTGTTCAAGCGCCATCTAC”, for which the binding signal (RPM ratio (pull-down/input)) stood at 3.09.

For “GATGATTGTTCTCCCAGCTGATGAATTTAGAAGTTCGAGTAAACAAATTTTCCTAATCTTTCTGTTCAAGCGCCATCTAC”, the binding signal (RPM ratio (pull-down/input)) came to 0.345.

For “GATGATTGTTCTCCCAGCTGATGAATTCCTTTGATCGAGTAAACAAATTTTCCTAATCTTTCTGTTCAAGCGCCATCTAC”, the binding signal (RPM ratio (pull-down/input)) is 0.255.

Consider “GATGATTGTTCTCCCAGCTGATGAATTGTTGCAGTCGAGTAAACAAATTTTCCTAATCTTTCTGTTCAAGCGCCATCTAC”, for which the binding signal (RPM ratio (pull-down/input)) was 2.79.

Consider “GATGATTGTTCTCCCAGCTGATGAATTTTTTTTATCGAGTAAACAAATTTTCCTAATCTTTCTGTTCAAGCGCCATCTAC”, for which the binding signal (RPM ratio (pull-down/input)) is 0.295.

Consider “GATGATTGTTCTCCCAGCTGATGAATTGCTGGACTCGAGTAAACAAATTTTCCTAATCTTTCTGTTCAAGCGCCATCTAC”, for which the binding signal (RPM ratio (pull-down/input)) came to 0.392.

Consider “GATGATTGTTCTCCCAGCTGATGAATTACTGAGATCGAGTAAACAAATTTTCCTAATCTTTCTGTTCAAGCGCCATCTAC”, for which the binding signal (RPM ratio (pull-down/input)) came to 0.271.

As for “GATGATTGTTCTCCCAGCTGATGAATTGCATGTTTCGAGTAAACAAATTTTCCTAATCTTTCTGTTCAAGCGCCATCTAC”, the binding signal (RPM ratio (pull-down/input)) stood at 2.47.

With “GATGATTGTTCTCCCAGCTGATGAATTATGCTGATCGAGTAAACAAATTTTCCTAATCTTTCTGTTCAAGCGCCATCTAC”, the binding signal (RPM ratio (pull-down/input)) was 2.01.

The values above are taken from article PMC12820563.
